Measured values reported in a collection of fitness landscapes (doi:10.1016/j.celrep.2020.107928).
The full ranking holds about 81,000 sequences; the median of “one-hybrid fitness for binding parS DNA” is about -0.17, and the highest 2% start at about 0.51. The list shows a part of the results.

B1: Caulobacter ParB omega fusion; a variant is named by its letters at X, in order, B8GW30 (parent)
chain: MESVVVGEPGMSEGRRGLGRGLSALLGEVDAAPAQAPGEQLGGSREAPIEILQRNPDQPRRTFREEDLEDLSNSIREKGVLQPILVRPSPDTAGEYQIVAGERAWRAAQRAGLKTVPIMVRELDDLAVLEIGIIENVQRADLNVLEEALSYKVLMEKFERTQENIAQTIGKSXSHVANXMRLLXLPDEVQSYLVSGELTAXHARAIAAAADPVALAKQIIEGGLSVRETEALARKAPNLSAGKSKGGRPPRVKDTDTQALESDLSSVLGLDVSIDHRGSTGTLTITYATLEQLDDLCNRLTRGI

Variants of: B1
Assay: one-hybrid fitness for binding parS DNA (scaled: cognate 1, non-cognate 0); higher = stronger binding
Details: with parS DNA site
Outline: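 The reporter was HIS3, with the binding site 19 bp from the promoter, in E. coli USO used for bacterial one-hybrid selection of Caulobacter ParB libraries with four specificity codons randomised. Growth was on M9 lacking histidine, with 0.1 mM IPTG and 5 mM 3-AT, for 48 hours at 37°C. Illumina sequencing covered plasmids before and after selection; three replicate libraries were pooled and variants with under 10 reads dropped. A fitness score is the log change in variant-to-wild-type read ratio, rescaled to the cognate and non-cognate references.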

Variant | one-hybrid fitness for binding parS DNA
RTMW | 0.258
DAGC | ≤ 0.2
FSYC | ≤ 0.2
CWTQ | ≤ 0.2
RPVY | ≤ 0.2
IYHG | ≤ 0.2
RSSN | 0.436
RKQG | 0.913
QSTK | ≤ 0.2
PKVL | ≤ 0.2
CPCM | ≤ 0.2
DTDV | ≤ 0.2
NCCT | ≤ 0.2
QMTI | ≤ 0.2
PMAL | ≤ 0.2
RMRQ | ≤ 0.2
QNSK | ≤ 0.2
MPPT | ≤ 0.2
NSYT | ≤ 0.2
YMLS | ≤ 0.2
RQME | ≤ 0.2
VCKC | ≤ 0.2
EESG | ≤ 0.2
RCPE | ≤ 0.2

Variant | one-hybrid fitness for binding parS DNA
AASW | ≤ 0.2
TLYM | ≤ 0.2
HKKR | ≤ 0.2
TYYS | ≤ 0.2
HGPA | ≤ 0.2
NYRG | ≤ 0.2
NWKY | ≤ 0.2
DFYT | ≤ 0.2
GSFH | ≤ 0.2
ESQG | ≤ 0.2
KHQE | ≤ 0.2
TTIG | ≤ 0.2
MSNM | ≤ 0.2
TCAL | ≤ 0.2
IGSG | ≤ 0.2
SNMT | ≤ 0.2
PDSR | ≤ 0.2
DVES | ≤ 0.2
KHSG | ≤ 0.2
MSHG | ≤ 0.2
YTVS | ≤ 0.2
IAMY | ≤ 0.2
PRKD | ≤ 0.2
NAIS | ≤ 0.2

Variant | one-hybrid fitness for binding parS DNA
HIGV | ≤ 0.2
SRHT | ≤ 0.2
PHQM | ≤ 0.2
QHYH | ≤ 0.2
YSGC | ≤ 0.2
EYTS | ≤ 0.2
CITI | ≤ 0.2
RFRH | 0.219
VSWK | ≤ 0.2
KPER | ≤ 0.2
YKRC | ≤ 0.2
CLTR | ≤ 0.2
RIEP | ≤ 0.2
QYYG | ≤ 0.2
LRNC | ≤ 0.2
QLLH | ≤ 0.2
QCLF | ≤ 0.2
KVAC | ≤ 0.2
NKGG | ≤ 0.2
SHLD | ≤ 0.2
AHEC | ≤ 0.2
EMNA | ≤ 0.2
KRQC | ≤ 0.2
TISL | ≤ 0.2

Variant | one-hybrid fitness for binding parS DNA
GMGC | ≤ 0.2
WYHR | ≤ 0.2
AKWQ | ≤ 0.2
QQSG | ≤ 0.2
CEEG | ≤ 0.2
VHHL | ≤ 0.2
PVHW | ≤ 0.2
ITGH | ≤ 0.2
QAMR | ≤ 0.2
QLSP | ≤ 0.2
YNPR | ≤ 0.2
LRPD | ≤ 0.2
PSRP | ≤ 0.2
VRNF | ≤ 0.2
AGSS | ≤ 0.2
QICL | ≤ 0.2
QCHR | ≤ 0.2
YWKR | ≤ 0.2
LEAD | ≤ 0.2
EKKS | ≤ 0.2
RCLG | 1.01
PDQA | ≤ 0.2
AFRR | ≤ 0.2
TKEV | ≤ 0.2

Variant | one-hybrid fitness for binding parS DNA
TTRM | ≤ 0.2
NAGL | ≤ 0.2
SLAN | ≤ 0.2
TNVC | ≤ 0.2
RQAH | ≤ 0.2
RDRS | 0.236
NKLG | ≤ 0.2
KPPS | ≤ 0.2
HPWL | ≤ 0.2
HVAF | ≤ 0.2
PYLG | ≤ 0.2
QPYA | ≤ 0.2
PQIE | ≤ 0.2
PGGR | ≤ 0.2
DTFF | ≤ 0.2
MVPG | ≤ 0.2
QYNV | ≤ 0.2
HAKM | ≤ 0.2
TFLI | ≤ 0.2
PIDR | ≤ 0.2
KDEM | ≤ 0.2
RHLS | 0.978
VEQK | ≤ 0.2
GDEG | ≤ 0.2

Variant | one-hybrid fitness for binding parS DNA
RMRM | 0.379
YIHR | ≤ 0.2
PWPY | ≤ 0.2
KGST | ≤ 0.2
YDTQ | ≤ 0.2
IAET | ≤ 0.2
GNNR | ≤ 0.2
FTSC | ≤ 0.2
TWSR | ≤ 0.2
PRCL | ≤ 0.2
TYGV | ≤ 0.2
HVPT | ≤ 0.2
SSRP | ≤ 0.2
TISP | ≤ 0.2
KHNT | ≤ 0.2
NYHC | ≤ 0.2
TIQC | ≤ 0.2
KTKK | ≤ 0.2
QPVA | ≤ 0.2
DRQL | ≤ 0.2
PDTG | ≤ 0.2
CKYT | ≤ 0.2
NCGG | ≤ 0.2
AHRC | ≤ 0.2

Variant | one-hybrid fitness for binding parS DNA
RWPA | ≤ 0.2
TVCR | ≤ 0.2
PRMY | ≤ 0.2
CSFN | ≤ 0.2
QQKA | ≤ 0.2
SYCW | ≤ 0.2
KTAY | ≤ 0.2
QCRM | ≤ 0.2
CHAI | 0.234
QHCV | ≤ 0.2
QSGQ | ≤ 0.2
TDYV | ≤ 0.2
KNSI | ≤ 0.2
IAAL | ≤ 0.2
TTPM | ≤ 0.2
MDPS | ≤ 0.2
SVTG | ≤ 0.2
NRMR | ≤ 0.2
QSYC | ≤ 0.2
YIRS | ≤ 0.2
SEPD | ≤ 0.2
FLMG | ≤ 0.2
CAGI | ≤ 0.2
SWHS | ≤ 0.2

Variant | one-hybrid fitness for binding parS DNA
WSQP | ≤ 0.2
AGTD | ≤ 0.2
RSPP | ≤ 0.2
QLNN | ≤ 0.2
RGTS | 0.863
AMQG | ≤ 0.2
NITS | ≤ 0.2
HIQC | ≤ 0.2
MSRF | ≤ 0.2
FAKA | ≤ 0.2
KCKR | ≤ 0.2
QWRG | ≤ 0.2
MLQA | ≤ 0.2
VSDE | ≤ 0.2
DSIS | ≤ 0.2
EGFS | ≤ 0.2
GRVS | ≤ 0.2
GPLT | ≤ 0.2
YQRM | ≤ 0.2
RDRE | ≤ 0.2
VPSI | ≤ 0.2
QQCC | ≤ 0.2
SCGR | ≤ 0.2
CYHR | ≤ 0.2

Variant | one-hybrid fitness for binding parS DNA
TYYF | ≤ 0.2
GKGC | ≤ 0.2
VKGK | ≤ 0.2
GWNS | ≤ 0.2
TSTQ | ≤ 0.2
QMVA | ≤ 0.2
TSCL | ≤ 0.2
RWLC | 0.658
MHRD | ≤ 0.2
CDRG | ≤ 0.2
HCTT | ≤ 0.2
KQKI | ≤ 0.2
FHRR | ≤ 0.2
YKTF | ≤ 0.2
RYRY | 0.476
HAAP | ≤ 0.2
WART | ≤ 0.2
PGYE | ≤ 0.2
LAER | ≤ 0.2
VSQY | ≤ 0.2
RAST | 0.911
QETC | ≤ 0.2
PSMP | ≤ 0.2
KLKT | ≤ 0.2

Variant | one-hybrid fitness for binding parS DNA
SNYT | ≤ 0.2
EHLF | ≤ 0.2
SCTY | ≤ 0.2
PYLD | ≤ 0.2
SSQS | ≤ 0.2
DYMC | ≤ 0.2
LASW | ≤ 0.2
MRRF | ≤ 0.2
EIGA | ≤ 0.2
IERS | ≤ 0.2
VPNM | ≤ 0.2
TPSV | ≤ 0.2
ANSG | ≤ 0.2
FAMG | ≤ 0.2
CVRP | ≤ 0.2
RQPD | ≤ 0.2
LMTI | ≤ 0.2
KWSC | ≤ 0.2
ITFC | ≤ 0.2
SNHI | ≤ 0.2
ETMT | ≤ 0.2
PRAY | ≤ 0.2
NNTR | ≤ 0.2
WKTG | ≤ 0.2

Variant | one-hybrid fitness for binding parS DNA
QEVV | ≤ 0.2
VLEL | ≤ 0.2
ARND | ≤ 0.2
QQDS | ≤ 0.2
RMYG | 1.03
NPYW | ≤ 0.2
HTHH | ≤ 0.2
WLTW | ≤ 0.2
LLIN | ≤ 0.2
NHHP | ≤ 0.2
LCWA | ≤ 0.2
RESV | ≤ 0.2
RGIE | ≤ 0.2
TQLR | ≤ 0.2
NHYG | ≤ 0.2
LAIG | ≤ 0.2
RDAV | ≤ 0.2
AAYP | ≤ 0.2
MATP | ≤ 0.2
LNKR | ≤ 0.2
SNHE | ≤ 0.2
AVLQ | ≤ 0.2
HYGS | ≤ 0.2
RNNY | 0.434

Variant | one-hybrid fitness for binding parS DNA
VGLC | ≤ 0.2
CQLG | ≤ 0.2
AYPW | ≤ 0.2
PIIT | ≤ 0.2
ALIT | ≤ 0.2
QKMN | ≤ 0.2
RTND | ≤ 0.2
LTME | ≤ 0.2
WGGG | ≤ 0.2
VPQV | ≤ 0.2
KNEG | ≤ 0.2
YGWG | ≤ 0.2
QDCR | ≤ 0.2
ISKL | ≤ 0.2
NCYC | ≤ 0.2
TGNR | ≤ 0.2
PEGC | ≤ 0.2
SQCC | ≤ 0.2
KKGL | ≤ 0.2
QRGC | ≤ 0.2
RKGY | 0.377
EIAF | ≤ 0.2
HPRY | ≤ 0.2
LALQ | ≤ 0.2

Variant | one-hybrid fitness for binding parS DNA
AMGA | ≤ 0.2
VSYR | ≤ 0.2
HGSG | ≤ 0.2
NSRH | ≤ 0.2
IQFR | ≤ 0.2
LTMS | ≤ 0.2
MKWM | ≤ 0.2
NQNG | ≤ 0.2
MTGT | ≤ 0.2
PREA | ≤ 0.2
RTEE | ≤ 0.2
KRKR | ≤ 0.2
DFYS | ≤ 0.2
YYAK | ≤ 0.2
PWVA | ≤ 0.2
EFLR | ≤ 0.2
RMRG | 0.962
RLHE | ≤ 0.2
